{"source": "PubChem BioAssay (NCI)", "system": "NCI-H322M lung", "test": "inhibition of tumour cell growth, NCI panel, 48 h", "note": "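Five compound concentrations were applied to cells in 96-well plates for 48 hours; endpoints were derived by simple linear interpolation of the resulting dose-response curve. GI50: concentration for 50% inhibition of growth. TGI: total growth inhibition.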", "data": [{"smiles": "C=CCn1c(SCC(=O)Nc2ccc(C(=O)/C=C/c3cc(OC)c(OC)c(OC)c3)cc2)nnc1-c1c[nH]c2ccccc12", "values": [{"measurement": "GI50", "result": 3.65, "unit": "µM"}, {"measurement": "TGI", "result": 18.8, "unit": "µM"}]}]}
